{"source": "the supplement of paper PMC4604168 (melanoma cell lines)", "note": "This is one part of the list. Many values rest on one well or one pass, so single values are uncertain.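 Note: cell number obtained by counting DAPI-stained nuclei in high-throughput microscope images with image analysis software, screen run in 1,536-well plates.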"}
{"system": "WM1716", "experiment": "cell count relative to DMSO control; melanoma cells; higher = more viable cells", "settings": "library dose: low library concentration; 72 h; first compound 0.4 µM", "units": {"cell count": "%"}}
{"smiles": "Cn1sc(=O)n(Cc2ccccc2)c1=O", "note": "+ Cn1c(Nc2ccc(C(F)(F)F)cc2)nc2cc(Oc3ccnc(-c4ncc(C(F)(F)F)[nH]4)c3)ccc21 [CHIR265] (partner dose 0.08 µM)", "cell count": 79.4}
{"smiles": "CCCCCCCCCCCCCCCCCCOP(=O)([O-])OC1CC[N+](C)(C)CC1", "note": "[Perifosine] + Clc1ccc(Nc2nnc(Cc3ccncc3)c3ccccc23)cc1 [vatalanib] (partner dose 2 µM)", "cell count": 96.5}
{"smiles": "C[C@@H](N)c1ccc(C(=O)Nc2ccnc3[nH]ccc23)cc1", "note": "+ Nc1cccc2c1CN(C1CCC(=O)NC1=O)C2=O [lenalidomide] (partner dose 1 µM)", "cell count": 53.7}
{"smiles": "CCCCCCCCCCCCCCCCCCOP(=O)([O-])OC1CC[N+](C)(C)CC1", "note": "[Perifosine] + NC1(c2ccc(-c3nc4ccn5c(=O)[nH]nc5c4cc3-c3ccccc3)cc2)CCC1 [MK2206] (partner dose 0.4 µM)", "cell count": 85.9}
{"smiles": "Cn1sc(=O)n(Cc2ccccc2)c1=O", "note": "+ NC(=O)c1ccc(N(C(N)=O)c2c(F)cccc2F)nc1-c1ccc(F)cc1F [VX702] (partner dose 0.4 µM)", "cell count": 106}
{"smiles": "Cn1sc(=O)n(Cc2ccccc2)c1=O", "note": "+ CC(=O)c1c(C)c2cnc(Nc3ccc(N4CCNCC4)cn3)nc2n(C2CCCC2)c1=O [palbociclib] (partner dose 0.04 µM)", "cell count": 68.3}
{"smiles": "Cn1sc(=O)n(Cc2ccccc2)c1=O", "note": "+ COc1ccc(-c2ccc3c(N4CCOCC4)nc(N4C[C@@H](C)O[C@@H](C)C4)nc3n2)cc1CO [KU0063794] (partner dose 0.02 µM)", "cell count": 96.7}
{"smiles": "Cn1sc(=O)n(Cc2ccccc2)c1=O", "note": "+ O=C1NC(=O)/C(=C/c2ccc(-c3ccc(F)cc3O)o2)S1 [AS252424] (partner dose 1 µM)", "cell count": 102}
{"smiles": "Cn1sc(=O)n(Cc2ccccc2)c1=O", "note": "+ COc1cc(Nc2ncc(F)c(Nc3ccc4c(n3)NC(=O)C(C)(C)O4)n2)cc(OC)c1OC [Tamatinib] (partner dose 0.4 µM)", "cell count": 91.9}
{"smiles": "C[C@@H](N)c1ccc(C(=O)Nc2ccnc3[nH]ccc23)cc1", "note": "+ Nc1nc(F)nc2c1ncn2[C@@H]1O[C@H](CO)[C@@H](O)[C@@H]1O [fludarabine] (partner dose 0.2 µM)", "cell count": 69.5}
{"smiles": "Cn1sc(=O)n(Cc2ccccc2)c1=O", "note": "+ Nc1nc(F)nc2c1ncn2[C@@H]1O[C@H](CO)[C@@H](O)[C@@H]1O [fludarabine] (partner dose 0.2 µM)", "cell count": 98.2}
{"smiles": "Cn1sc(=O)n(Cc2ccccc2)c1=O", "note": "+ c1cc(-c2cnn3cc(-c4ccc(OCCN5CCCCC5)cc4)cnc23)ccn1 [Dorsomorphin] (partner dose 0.4 µM)", "cell count": 97.4}
{"smiles": "Cn1sc(=O)n(Cc2ccccc2)c1=O", "note": "+ C=CCn1c(=O)c2cnc(Nc3ccc(N4CCN(C)CC4)cc3)nc2n1-c1cccc(C(C)(C)O)n1 [MK1775] (partner dose 0.02 µM)", "cell count": 102}
{"smiles": "Cn1sc(=O)n(Cc2ccccc2)c1=O", "note": "+ OCCn1cc(-c2cnc3nnn(Cc4ccc5ncccc5c4)c3n2)cn1 [PF04217903] (partner dose 1 µM)", "cell count": 121}
{"smiles": "Cn1sc(=O)n(Cc2ccccc2)c1=O", "note": "+ Cn1c(=O)n(-c2ccc(C(C)(C)C#N)cc2)c2c3cc(-c4cnc5ccccc5c4)ccc3ncc21 [NVP-BEZ235] (partner dose 0.004 µM)", "cell count": 80.7}
{"smiles": "Cn1sc(=O)n(Cc2ccccc2)c1=O", "note": "+ C#Cc1cccc(Nc2ncnc3cc(OCCOC)c(OCCOC)cc23)c1 [erlotinib] (partner dose 0.8 µM)", "cell count": 87.7}
{"smiles": "Cn1sc(=O)n(Cc2ccccc2)c1=O", "note": "+ COC(=O)c1sccc1S(=O)(=O)Nc1ccc(Nc2ccccc2)cc1OC [GSK0660] (partner dose 1 µM)", "cell count": 104}
{"smiles": "C[C@@H](N)c1ccc(C(=O)Nc2ccnc3[nH]ccc23)cc1", "note": "+ COc1ccc(Cl)c(Nc2nc3ccccc3nc2NS(=O)(=O)c2cccc(NC(=O)C(C)(C)N)c2)c1 [XL147] (partner dose 0.8 µM)", "cell count": 68.7}
{"smiles": "C[C@@H](N)c1ccc(C(=O)Nc2ccnc3[nH]ccc23)cc1", "note": "+ CCc1ccc(CCOc2ccc(CC3SC(=O)NC3=O)cc2)nc1 [pioglitazone] (partner dose 2 µM)", "cell count": 77.1}
{"smiles": "CCCCCCCCCCCCCCCCCCOP(=O)([O-])OC1CC[N+](C)(C)CC1", "note": "[Perifosine] + COc1ccc(C2=N[C@@H](c3ccc(Cl)cc3)[C@@H](c3ccc(Cl)cc3)N2C(=O)N2CCNC(=O)C2)c(OC(C)C)c1 [Nutlin-3] (partner dose 0.1 µM)", "cell count": 98.9}
{"smiles": "CCCCCCCCCCCCCCCCCCOP(=O)([O-])OC1CC[N+](C)(C)CC1", "note": "[Perifosine] + CNC(=O)c1cc(Oc2ccc(NC(=O)Nc3ccc(Cl)c(C(F)(F)F)c3)cc2)ccn1 [sorafenib] (partner dose 0.4 µM)", "cell count": 101}
{"smiles": "C[C@@H](N)c1ccc(C(=O)Nc2ccnc3[nH]ccc23)cc1", "note": "+ COc1cc(N2CCC(N3CCN(C)CC3)CC2)ccc1Nc1ncc(Cl)c(Nc2ccccc2S(=O)(=O)C(C)C)n1 [NVP-TAE684] (partner dose 0.08 µM)", "cell count": 66.8}
{"smiles": "Cn1sc(=O)n(Cc2ccccc2)c1=O", "note": "+ Nc1cccc2c1CN(C1CCC(=O)NC1=O)C2=O [lenalidomide] (partner dose 1 µM)", "cell count": 101}
{"smiles": "CCCCCCCCCCCCCCCCCCOP(=O)([O-])OC1CC[N+](C)(C)CC1", "note": "[Perifosine] + O=C1NC(=O)/C(=C/c2ccc(-c3ccc(F)cc3O)o2)S1 [AS252424] (partner dose 1 µM)", "cell count": 93.4}
{"smiles": "Cn1sc(=O)n(Cc2ccccc2)c1=O", "note": "+ O=C(Nc1ccccc1)c1cc([N+](=O)[O-])ccc1Cl [GW9662] (partner dose 2 µM)", "cell count": 110}
{"smiles": "Cn1sc(=O)n(Cc2ccccc2)c1=O", "note": "+ Clc1ccc(Nc2nnc(Cc3ccncc3)c3ccccc23)cc1 [vatalanib] (partner dose 2 µM)", "cell count": 97.6}
{"smiles": "C[C@@H](N)c1ccc(C(=O)Nc2ccnc3[nH]ccc23)cc1", "note": "+ C[C@@H](Oc1cc(-c2cnn(C3CCNCC3)c2)cnc1N)c1c(Cl)ccc(F)c1Cl [Crizotinib] (partner dose 0.2 µM)", "cell count": 73}
{"smiles": "C[C@@H](N)c1ccc(C(=O)Nc2ccnc3[nH]ccc23)cc1", "note": "+ CC(C)CCN1c2nc(Nc3cc(F)c(O)c(F)c3)ncc2N(C)C(=O)C1C [BID1870] (partner dose 0.2 µM)", "cell count": 79.6}
{"smiles": "C[C@@H](N)c1ccc(C(=O)Nc2ccnc3[nH]ccc23)cc1", "note": "+ C[C@]1(c2nc3c(C(N)=O)cccc3[nH]2)CCCN1 [Veliparib] (partner dose 1.4 µM)", "cell count": 60.7}
{"smiles": "Cn1sc(=O)n(Cc2ccccc2)c1=O", "note": "+ COc1ccc(C2=N[C@@H](c3ccc(Cl)cc3)[C@@H](c3ccc(Cl)cc3)N2C(=O)N2CCNC(=O)C2)c(OC(C)C)c1 [Nutlin-3] (partner dose 0.1 µM)", "cell count": 100}
{"smiles": "CCCCCCCCCCCCCCCCCCOP(=O)([O-])OC1CC[N+](C)(C)CC1", "note": "[Perifosine] + CCCCCCCCCCCC1=C(O)C(=O)C=C(O)C1=O [Embelin] (partner dose 1.2 µM)", "cell count": 110}
{"smiles": "CCCCCCCCCCCCCCCCCCOP(=O)([O-])OC1CC[N+](C)(C)CC1", "note": "[Perifosine] + COC(=O)c1sccc1S(=O)(=O)Nc1ccc(Nc2ccccc2)cc1OC [GSK0660] (partner dose 1 µM)", "cell count": 103}
{"smiles": "C[C@@H](N)c1ccc(C(=O)Nc2ccnc3[nH]ccc23)cc1", "note": "+ Cc1cc(Nc2cc(N3CCN(C)CC3)nc(/C=C/c3ccccc3)n2)n[nH]1 [ENMD2076] (partner dose 0.04 µM)", "cell count": 65.5}
{"smiles": "CCCCCCCCCCCCCCCCCCOP(=O)([O-])OC1CC[N+](C)(C)CC1", "note": "[Perifosine] + COCC[n+]1c2c(n(Cc3cnccn3)c1C)C(=O)c1ccccc1C2=O [YM155] (partner dose 0.0004 µM)", "cell count": 78.6}
{"smiles": "C[C@@H](N)c1ccc(C(=O)Nc2ccnc3[nH]ccc23)cc1", "note": "+ O=C(Nc1cccc(Cl)c1)Nc1ncc(CCNc2ncnc3ccsc23)s1 [SNS314] (partner dose 0.0008 µM)", "cell count": 69.2}
{"smiles": "CCCCCCCCCCCCCCCCCCOP(=O)([O-])OC1CC[N+](C)(C)CC1", "note": "[Perifosine] + C=CCn1c(=O)c2cnc(Nc3ccc(N4CCN(C)CC4)cc3)nc2n1-c1cccc(C(C)(C)O)n1 [MK1775] (partner dose 0.02 µM)", "cell count": 73.5}
{"smiles": "CCCCCCCCCCCCCCCCCCOP(=O)([O-])OC1CC[N+](C)(C)CC1", "note": "[Perifosine] + C=C(c1ccc(C(=O)O)cc1)c1cc2c(cc1C)C(C)(C)CCC2(C)C [Bexarotene] (partner dose 2 µM)", "cell count": 85.6}
{"smiles": "CCCCCCCCCCCCCCCCCCOP(=O)([O-])OC1CC[N+](C)(C)CC1", "note": "[Perifosine] + Nc1ncn([C@H]2C[C@H](O)[C@@H](CO)O2)c(=O)n1 [decitabine] (partner dose 0.1 µM)", "cell count": 83.4}
{"smiles": "C[C@@H](N)c1ccc(C(=O)Nc2ccnc3[nH]ccc23)cc1", "note": "+ C[C@]1(O)C[C@@H](c2nc(-c3ccc4ccc(-c5ccccc5)nc4c3)c3c(N)nccn32)C1 [OSI906] (partner dose 0.4 µM)", "cell count": 66.3}
